The values below come from patent US20150376271 (published 2015).

The target in the assay is T1, VEGFA-165 (human, UniProt P15692).
T1 chain: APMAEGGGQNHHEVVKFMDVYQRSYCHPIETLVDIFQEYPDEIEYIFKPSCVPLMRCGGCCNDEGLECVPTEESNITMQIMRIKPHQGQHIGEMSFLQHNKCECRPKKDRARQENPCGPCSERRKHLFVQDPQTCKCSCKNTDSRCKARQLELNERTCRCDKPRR
Nature of the assay: SPR, 25C.

B1: aflibercept (protein)
chain: SDTGRPFVEMYSEIPEIIHMTEGRELVIPCRVTSPNITVTLKKFPLDTLIPDGKRIIWDSRKGFIISNATYKEIGLLTCEATVNGHLYKTNYLTHRQTNTIIDVVLSPSHGIELSVGEKLVLNCTARTELNVGIDFNWEYPSSKHQHKKLVNRDLKTQSGSEMKKFLSTLTIDGVTRSDQGLYTCAASSGLMTKKNSTFVRVHEK[human IgG1 Fc left out here]
What is called Kd is the equilibrium constant for the complex coming apart. A low value points to a tighter complex. B1 returned a Kd of 1.56 pM.
